The results in this text go back to patent EP4775675A1 (Shanghai Hongcheng Biopharmaceutical Co., Ltd., dated 2026).

Substitutions are numbered along the chain they refer to. Like-named read-outs stand apart in the source and are kept apart here.

The target in test [1] is T1, human BDCA-2 on cells (Jurkat-hBDCA-2 cells; human pDCs; human PBMCs) (human, UniProt Q8WTT0 1-213).
T1 sequence (looked up): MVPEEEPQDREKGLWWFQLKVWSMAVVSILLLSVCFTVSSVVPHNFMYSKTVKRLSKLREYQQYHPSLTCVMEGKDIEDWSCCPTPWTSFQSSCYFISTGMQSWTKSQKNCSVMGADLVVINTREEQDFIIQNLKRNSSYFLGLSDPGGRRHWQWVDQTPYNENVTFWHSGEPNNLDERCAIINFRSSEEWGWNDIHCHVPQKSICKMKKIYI
Description: cell-based or functional assay.

In test [2] the target is T1, human BDCA-2 on cells (Jurkat-hBDCA-2 …). Description: flow cytometry on Jurkat-hBDCA-2 cells. On the technique in general: A flow cytometer gives signals particle by particle.
Test [3] shares this target. Description: cell-based or functional assay. The source holds these as a separate data set.
The target of test [4] is T2, Human BDCA-2 protein (soluble, Octet analyte) (human, UniProt Q8WTT0 45-213, limits assumed).
T2 construct: Soluble protein used as analyte in BLI
T2 sequence (looked up): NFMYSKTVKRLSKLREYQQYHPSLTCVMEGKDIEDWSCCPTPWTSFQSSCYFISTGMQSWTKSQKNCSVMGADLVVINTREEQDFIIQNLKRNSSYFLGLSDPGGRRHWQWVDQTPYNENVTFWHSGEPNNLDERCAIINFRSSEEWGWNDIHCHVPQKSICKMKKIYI
Put plainly: BLI (Octet Red96e), antibody on anti-human IgG sensor, human BDCA-2 protein in solution. For orientation: Biolayer interferometry detects binding as a change in optical thickness at a sensor tip.

Test [5] has as its target T3, cynomolgus monkey BDCA-2 on cells (Jurkat-cynoBDCA-2 cells; cynomolgus monkey pDCs) (cynomolgus monkey, UniProt A0A2K5UWP4 1-212).
T3 construct: whole, on cells
T3 sequence: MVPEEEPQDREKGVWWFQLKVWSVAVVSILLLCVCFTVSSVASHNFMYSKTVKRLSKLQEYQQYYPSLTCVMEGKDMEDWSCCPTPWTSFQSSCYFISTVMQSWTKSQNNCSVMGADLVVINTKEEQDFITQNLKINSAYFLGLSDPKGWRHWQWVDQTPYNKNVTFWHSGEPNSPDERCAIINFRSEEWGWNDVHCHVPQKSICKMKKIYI
Put plainly: flow cytometry on Jurkat-cynoBDCA-2 cells.

For test [6], the target named is T1, human BDCA-2 on cells (Jurkat-hBDCA-2 …). Put plainly: flow cytometry on Jurkat-hBDCA-2 cells. The source holds these as a separate data set.
The target in test [7] is T3, cynomolgus monkey BDCA-2 on cells …. Description: flow cytometry on Jurkat-cynoBDCA-2 cells. This is another data set of the same source.
Test [8] addresses T4, cynomolgus monkey BDCA-2 protein (acro, CLC-C52H4) (cynomolgus monkey, UniProt A0A2K5UWP4 45-212).
T4 construct: Bought soluble protein; also called cyno BDCA-2
T4 sequence: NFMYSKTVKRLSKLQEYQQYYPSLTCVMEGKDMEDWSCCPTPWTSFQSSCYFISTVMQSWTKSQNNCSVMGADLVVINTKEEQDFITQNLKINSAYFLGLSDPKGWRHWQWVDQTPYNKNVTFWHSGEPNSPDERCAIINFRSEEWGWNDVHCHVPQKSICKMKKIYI
Put plainly: BLI (Octet Red96e), antibody on anti-human IgG sensor, cynomolgus monkey BDCA-2 protein in solution.

In test [9] the target is T2, Human BDCA-2 protein (soluble, Octet …). Description: BLI (Octet Red96e), antibody on anti-human IgG sensor, human BDCA-2 protein in solution. The source holds these as a separate data set.
For test [10], the target named is T1, human BDCA-2 on cells (Jurkat-hBDCA-2 …). Description: flow cytometry on sorted human pDCs.
Test [11] shares this target. Put plainly: cell-based or functional assay. The source holds these as a separate data set.
The target is the same in test [12]. Put plainly: cell-based or functional assay. This is another data set of the same source.
The target is the same in test [13]. Put plainly: cell-based or functional assay. The source holds these as a separate data set.

B1: 164C11B8_hIgG1 (chimeric antibody) (antibody)
heavy: DVILVESGGGLVKPGGSLKLSCAASGITFSTYTMSWLRQTPEKRLEWVATINSGGDNTYYPDSVKGRFTISRDNAKNNLYLQMSSLKSEDTALYYCATYRPYYYGSVLDYWGQGTTLTVSS[sequence of human IgG1 constant region omitted]
light: DIVLTQSPASLAVSLGQRATISCKASQSVDYDGNSYVNWYQQKPGQPPKLLIYGASNLESGIPDRFSGSGSGTDFTLNIHPVEEEDGATYYCQQSDEDPWTFGGGTKLEIRRTVAAPSVFIFPPSDEQLKSGTASVVCLLNNFYPREAKVQWKVDNALQSGNSQESVTEQDSKDSTYSLSSTLTLSKADYEKHKVYACEVTHQGLSSPVTKSFNRGEC
notes: Mouse variable regions on human IgG1/kappa; also called 164C11B8 chimeric antibody; Chimeric antibody 164C11B8
As to B1, the “EC50, inhibition of immune complex-induced type I interferon (IFNα) in human pDC cells” value in [1] was 3.6 ng/mL. Besides, in test [2], the 50% effective concentration (EC50) (commonly the concentration giving half of the maximal effect) worked out at 0.215 µg/mL. The “EC50, inhibition of CpGA-induced type I interferon (IFNα) production in human PBMC cells” value (shortened to “EC50, inhibition … in human PBMC cells”) in test [3] was 0.0011 µg/mL. In addition, in [4], the affinity, expressed as Kd, was 2.17 nM; the koff (commonly the rate constant with which the complex falls apart) stood at 0.000338 s⁻¹; the on-rate (kon) – broadly, the second-order rate constant of association – was 156000 M⁻¹ s⁻¹. In test [5], this molecule gave a concentration for a half-maximal effect (EC50) of 0.21 µg/mL.

B2: 164C11B8_hzH2L2_hIgG1 (antibody)
heavy: EVQLLESGGGLVQPGGSLRLSCAASGFTFSTYTMSWVRQAPGKGLEWVATINSGGDNTYYPDSVKGRFTISRDNSKNTLYLQMNSLRAEDTAVYYCATYRPYYYGSVLDYWGQGTTVTVSS[sequence of human IgG1 constant region omitted]
light: DIVMTQSPDSLAVSLGERATINCKASQSVDYDGNSYVNWYQQKPGQPPKLLIYGASNLESGIPDRFSGSGSGTDFTLTISSLQAEDVAVYYCQQSDEDPWTFGGGTKVEIKRTVAAPSVFIFPPSDEQLKSGTASVVCLLNNFYPREAKVQWKVDNALQSGNSQESVTEQDSKDSTYSLSSTLTLSKADYEKHKVYACEVTHQGLSSPVTKSFNRGEC
Consider B2, for which the 50% effective concentration (EC50) is 0.106 µg/mL in [6] and 0.256 µg/mL in [7].

B3: 164C11B8_hzH1L2_hIgG1 (antibody)
heavy: B2 heavy with A49S
light: B2 light
Turning to B3, the EC50 was 0.0775 µg/mL in [6] and 0.144 µg/mL in [7].

B4: 164C11B8_hzH4L3_hIgG1 (antibody)
heavy: B2 heavy with F27I, G44R
light: B2 light with M4L
As to B4, the EC50 in [6] is 0.11 µg/mL; in test [7], 0.16 µg/mL.

B5: 164C11B8_hzH4L2_hIgG1 (antibody)
heavy: B2 heavy with F27I, G44R
light: B2 light
With B5, the EC50 in test [6] was determined as 0.0611 µg/mL; in test [7], 0.104 µg/mL.

B6: 164C11B8_hzH1L3_hIgG1 (antibody)
heavy: B2 heavy with A49S
light: B2 light with M4L
B6: the EC50 in [6] stood at 0.113 µg/mL; in test [7] it was 0.193 µg/mL.

B7: 164C11B8_hzH2L3_hIgG1 (antibody)
heavy: B2 heavy
light: B2 light with M4L
Take B7: the results for the EC50 in test [6] and in [7] were 0.0703 µg/mL and 0.115 µg/mL, respectively.

B8: 164C11B8_hzH3L2_hIgG1 (antibody)
heavy: B2 heavy with F27I
light: B2 light
For the molecule B8, the half-maximal effective concentration (EC50) in test [6] was 0.112 µg/mL; in test [7] it was 0.154 µg/mL.

B9: 164C11B8_hzH3L3_hIgG1 (antibody)
heavy: B2 heavy with F27I
light: B2 light with M4L
As to B9, the half-maximal effective concentration (EC50) in [6] is 0.073 µg/mL; in test [7], 0.0837 µg/mL.

B10: 17G6A2_hzH1L5_hIgG1 (antibody)
heavy: EVQLVESGGGLVKPGGSLRLSCAASGFTFSSYGMSWVRQAPGKGLEWVSTISSGDSYTYYPDSVKGRFTISRDNAKNSLYLQMNSLRAEDTAVYYCARQLYYSYGYYFDYWGQGTTVTVSS[sequence of human IgG1 constant region omitted]
light: DIVLTQSPASLAVSPGQRATITCRASESVSFHGTHLMHWYQQKPGQPPKLLIYAASNLESGVPARFSGSGSGTDFTLTINPVEAEDTANYYCQQSIEDPPTFGGGTKVEIKRTVAAPSVFIFPPSDEQLKSGTASVVCLLNNFYPREAKVQWKVDNALQSGNSQESVTEQDSKDSTYSLSSTLTLSKADYEKHKVYACEVTHQGLSSPVTKSFNRGEC
notes: Humanized, human IgG1/kappa (hzVH01 + hzVL05); also called 17G6A2_hzH11L5_hIgG1; 17G6A2 humanized antibody
On to B10, for which the Kd (in general, the equilibrium constant for the complex coming apart) in test [8] was determined as 5.7 nM; in test [9], 4.4 nM. Besides, the dissociation rate constant (koff) came to 0.00067 s⁻¹ in test [8] and 0.00049 s⁻¹ in test [9]. The kon in test [8] was 120000 M⁻¹ s⁻¹; in [9], 111000 M⁻¹ s⁻¹. The EC50 in test [6] came out at 0.0311 µg/mL; in [7], 0.0533 µg/mL; in [10] it was 0.0776 µg/mL. Moreover, the “EC50, inhibition of immune complex-induced type I interferon (IFNα) production by human pDC cells” value in test [11] is 0.9 ng/mL. The “EC50, inhibition … in human PBMC cells” value in test [12] stood at 0.001 µg/mL.

B11: 17G6A2_hIgG1 (chimeric antibody) (antibody)
heavy: EVQLVESGGDLVKPGGSLKLSCAASGFTFSSYGMSWVRQTPDKRLEWVATISSGDSYTYYPDSVKGRFTISRDNAKNTLYLQMSSLKSEDTAMYYCARQLYYSYGYYFDYWGQGTTLTVSS[sequence of human IgG1 constant region omitted]
light: B10 light with P15L, T22S, G72E, T78N, N80H, A84E, T87A, N89T, Y91F, V108L
notes: Mouse variable regions on human IgG1/kappa; also called 17G6A2 chimeric antibody; Chimeric antibody 17G6A2
For B11, the concentration for a half-maximal effect (EC50) in test [2] turned out to be 0.0877 µg/mL; in [5] it was 0.0792 µg/mL. Moreover, the “EC50, inhibition … in human PBMC cells” value in [3] worked out at 0.0013 µg/mL. Moreover, the figures for the equilibrium dissociation constant (Kd) in test [4] and in test [9] were 0.519 nM and 1.4 nM, respectively. The koff in test [4] turned out to be 0.000142 s⁻¹; in test [9], 0.000263 s⁻¹. Also, the figures for the kon in test [4] and in test [9] were 274000 M⁻¹ s⁻¹ and 194000 M⁻¹ s⁻¹, respectively. The “EC50, inhibition of immune complex-induced type I interferon (IFNα) in human pDC cells” value in test [13] amounted to 29.2 ng/mL.

B12: 17G6A2_hzH1L6_hIgG1 (antibody)
heavy: B10 heavy
light: B10 light with E85N, T87A
notes: Humanized, human IgG1/kappa (hzVH01 + hzVL06)
In test [8], B12 registered an equilibrium dissociation constant (Kd) of 5.6 nM, a koff of 0.00065 s⁻¹ and a kon of 110000 M⁻¹ s⁻¹. In addition, the 50% effective concentration (EC50) in test [6] turned out to be 0.0553 µg/mL. This molecule showed an EC50 in test [7] of 0.0997 µg/mL. In test [9], this molecule showed a Kd of 5.9 nM, a koff of 0.000705 s⁻¹ and a kon of 120000 M⁻¹ s⁻¹. In addition, the “EC50, inhibition of immune complex-induced type I interferon (IFNα) production by human pDC cells” value in test [11] turned out to be 0.7 ng/mL. The “EC50, inhibition … in human PBMC cells” value in test [12] was determined as 0.0014 µg/mL.
